Values marked as one replicate rest on one cluster of the flow cell; about a third of the high ones do not repeat.
System: ATP
Assay: switch fluorescence ratio, 500 uM ATP over buffer (Cy3 cluster intensity, sum of 5 cycles each) (fold (ratio)); higher = stronger signal-on switching upon ATP binding; sequences stand for … in TCGTCGGCAGCGTCAGATGTGTATAAGAGACAGTTTTTTTTTTTTTTTTTTTTTTTTT…TC
Details: aptamer strand: ATP DNA aptamer (quencher-CACCTGGGGGAGTATTGCGGAGGAAGG + anchor), 100 nM annealed; ATP concentration: 500 uM; one replicate
In short: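 Switching-strand clusters labelled with Cy3 on a modified Illumina MiSeq flow-cell were annealed to 100 nM quencher-labelled ATP aptamer, imaged in selection buffer, and re-imaged after 15 min with 500 uM ATP at 22 °C. This was done over five cycles with NaOH stripping and re-annealing in between. The fluorescence ratio is summed target-cycle over summed buffer-cycle Cy3 intensity per cluster, averaged per switch-domain sequence, excluding clusters outside 100-1000 RFU.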
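Further: ATP exposure 15 min at 22 °C before imaging.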

Sequence	switch fluorescence ratio
TTTAAAGGCG	1.03
ATGTTGGTCT	0.955
GGGAAGAAAC	0.999
GAGATCCGGC	0.978
CCCTTGTTGA	0.957
TTGCTTGGCA	0.984
AGCCCAGGA	0.984
GGGTAATGAT	1.02
TTATACATGA	1.02
GCTAGCGAAC	1.07
AGCGAATCCC	1.16
GGACGAAGTT	1.02
TGTAGTATAT	1.23
CGAATAGTTA	0.995
TTCCCTTCGG	0.987
GTTAGTATGC	1
ACCCTGGCGG	1.04
ACGAAAACTA	0.982
AAAAAGTAGG	1.02
GTGCATGATG	1.03
GCACCGCGTC	1.39
CGCTCAGGA	0.965
AGATGACAGC	0.966

Sequence	switch fluorescence ratio
CGACTAGGCA	1
ATATGTCACT	1
GGAAAGCACG	1.07
TATGTAAACG	1.05
GGCATGGATT	1
GTTGTCTGTG	0.985
TGGATAGCAT	1.02
ATGTGACCTT	1.16
TCGCATATTA	1.45
TAGCAACTC	1.71
GACAGCTTGT	1.01
GAGCATTAGG	1.03
GTGACTGCAA	2.22
TCTGGAAGCC	1.03
ATTTGCGGTA	1.02
ATGGTTTTCC	1.01
GTTTGGTCGC	0.973
GGTGCCGTCA	1.06
GGCTTTGA	0.977
TATTTGCCA	1.02
TGCCACTCCA	1.04
AAAGCGACGC	1.01
CTGTCGGTAC	5.06

Sequence	switch fluorescence ratio
TTTAGAAACA	0.974
CGACGCGGGG	1.48
GCTGGGCGTG	1
CTCACGGTGT	1.27
TCATAGGGCA	1.01
CTCATTACGC	1.05
ACGCTCACTT	1.44
AAATTATTAG	0.998
GGGTATTCCG	0.956
ACTCTAACCG	1.05
ATGCAAGTTG	1
TACATAAGTC	1.11
TTGGCGGTTC	1.04
CTTTGGTTA	0.949
ACTTAGTGTT	1.03
TAGATATCGA	0.985
GTTAAGCCGC	1.05
GAAAACCTTG	0.973
TAGATAGACG	0.966
ATGCTTTGCG	1.01
ACTGCCTGGT	1.03
CGCAGTTGGG	1.06
GCCCATGACT	1.02

Sequence	switch fluorescence ratio
GCACCTGT	1.01
CCAGGACCGC	1.2
TCTAAGGACC	0.999
GTCCCTCACG	1.02
ACGGCCCTGC	1.04
GAGGCGCTGG	0.996
AGTAGGCGGA	0.993
ATTCCTACCT	1.36
TTTCAACGTG	1.01
AGAACCTGTG	1.02
TGAGTTTACG	1.05
CAGCGTGATT	0.988
TGAGGGCTCT	0.971
GCGAAATGCG	1.02
TAAGTCAAAT	1
TTGGGCACAC	1.47
GACGACGTGG	1.03
TTTACACAT	1.05
TGATCTAAGT	0.995
AACCGGTCGA	1.01
AGTCGAAAAG	0.993
GTTCCAGCTG	0.965
AATCGGTGAC	0.996

Sequence	switch fluorescence ratio
CAAAATCTCG	1.05
GAAAACGACG	1.07
AAGCGAATCT	1.03
ACGGTTGGGG	1.04
CCGCGGATTT	1.02
TTCTTTAAAT	0.967
CCGCATTTAT	5.75
CGGTTATAC	2.32
GGTATCGTTC	1.01
GGTAATATAG	0.99
TCTGAGGGCC	0.978
ATTAGGGCTC	0.99
TTGCCAGCCG	1.07
ACTTTTTCCG	1.14
TAGTGTTTGC	0.972
TTATAGGAGG	0.994
ACATGAGCAT	0.983
TGCGTGAAGA	1.03
CACGGAGTTC	1.04
CGGAGATATG	0.995
GAGGAGTCTG	0.959
TACGTCCATG	1
TTCCCTAGAG	0.988

Sequence	switch fluorescence ratio
ACAAGGCCGG	1
AAAAATGGG	0.994
ATAACGAGGG	0.974
AATCGTTTAC	1.03
ATGAGCCTAT	0.966
ATCTGGGTCG	1.02
ACATTAAGTG	1.02
GGTGTCGACC	0.986
ATATTCGTGG	1.01
CTCGAAAGTT	1
TGCGATTCGC	1.02
CGTTAGTTCG	1.01
ATACAAGGG	0.991
CTAGCTGTTG	1
TTTAAATTT	0.968
TTGATCGCGG	0.938
ATATCGGACG	1.05
GGTCATGGGC	1.04
GTATGTGCGC	0.965
AGAAATGTCT	0.98
CCGCTTGATT	1.17
GCTGTCTTGG	1
TCCAACGG	1.02

Sequence	switch fluorescence ratio
TGGTGGCATC	0.947
TGGGACTAAT	0.991
CAAGTCCGCT	1.2
GATTGGCGAA	0.971
AAAAACGGGT	1.03
ACAAAGGCC	1.03
AATGCTGCCT	1.05
GTTATTGTA	0.975
TTAAAACTTC	1.04
CGGCGTAGT	0.957
ATGCCGGCTG	1.04
TGTTACTTCG	1.57
ATCCGCGTCA	1.46
ATCCGCCAGG	2.39
CTCTTCATGA	1
AAATTTACC	1.02
TCCGTTTCGT	1
TGCGAACGGG	0.999
TTCTATGGAT	0.982

Reference: the supplement of paper PMC10126150
